# Measurements taken from publication PMC7819943, “Rice protein-binding microarrays: a tool to detect cis-acting elements near promoter regions in rice”.
# This is one part of the list.
# Biological target: T1, OsWOX13 (Oryza sativa, UniProt Q5QMM3 1-267)
# T1 sequence: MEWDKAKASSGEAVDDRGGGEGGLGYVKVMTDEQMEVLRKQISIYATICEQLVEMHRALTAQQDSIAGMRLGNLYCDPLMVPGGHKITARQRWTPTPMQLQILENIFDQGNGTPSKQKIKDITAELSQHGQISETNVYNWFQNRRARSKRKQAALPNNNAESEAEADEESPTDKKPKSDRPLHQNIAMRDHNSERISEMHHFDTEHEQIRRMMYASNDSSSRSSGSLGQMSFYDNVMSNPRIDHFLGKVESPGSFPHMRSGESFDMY
# Experiment: protein-binding microarray (RPBM); PBS, 2% BSA, 51.3 ng/ul salmon testes DNA, 50 uM zinc acetate, 200 nM TF, 25 C, 1 h; high values mean tight binding
# Conditions: protein: recombinant; tags: N-terminal polyhistidine and DsRed monomer fusion (pET32a); label: CyDye5-dUTP incorporated in the synthesized complementary strand; 3' TTTTT single-stranded linker to array surface; dsDNA, one strand shown
# Summary of the method: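 Using Ni–NTA, transcription factors fused N-terminally to polyhistidine and DsRed were purified after expression in E. coli BL21-CodonPlus. These were incubated at 200 nM with a blocked, double-stranded custom Agilent array for 1 h at 25 °C in a buffer containing 50 µM zinc acetate, and the array was washed. The binding signal is per-feature fluorescence intensity (arbitrary units) on an Axon 4000B scanner.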
row,Sequence,binding signal
1,CCTGTTAATTGAGCAGGAGCCAACAACCCAACTATAACCCCGGAGTCACCTAGTGCAG,34600 fluorescence intensity (a.u.)
2,AATGACAGGAAAGGAACTAGGGCTAGGGAAGACACAAACTCGGAGTCACCTAGTGCAG,4620 fluorescence intensity (a.u.)
3,ACCCACGAATTAAATAAATTGGCTATAGGTGACTATCCATCGGAGTCACCTAGTGCAG,15000 fluorescence intensity (a.u.)
4,TTTGATATCACTCATAGATGATGAAGGTTAAACAGTGCCTCGGAGTCACCTAGTGCAG,4090 fluorescence intensity (a.u.)
5,CGATTTGTATTGATAGGAAATTTGTTAAGACGGGTTAACACGGAGTCACCTAGTGCAG,15100 fluorescence intensity (a.u.)
6,TAGACAAGGAATGACACAGATAATTGTTACCCTGGAAGCACGGAGTCACCTAGTGCAG,3760 fluorescence intensity (a.u.)
7,TCTAGGTATTACTCTATTTAAATTGGAATAAAGGCTCATTCGGAGTCACCTAGTGCAG,3440 fluorescence intensity (a.u.)
8,TTAACTAGTTACTTTGTTTAATTGATATAATTCTATTTACCGGAGTCACCTAGTGCAG,6070 fluorescence intensity (a.u.)
9,ATGTACTTAATTCAATTTGTCAAAAGAATTATGTATCCCTCGGAGTCACCTAGTGCAG,3990 fluorescence intensity (a.u.)
10,ATAGGTATTAATGAATTTAGACATATGGAGTACTTGGCAGCGGAGTCACCTAGTGCAG,4130 fluorescence intensity (a.u.)
11,AAATAAATTAAAATCCCATCATTAATTAGTAATCTTTACGCGGAGTCACCTAGTGCAG,37500 fluorescence intensity (a.u.)
12,ATTGACGAAGTTGACTAGAAACCACTGAGGCCATTTGGATCGGAGTCACCTAGTGCAG,4650 fluorescence intensity (a.u.)
13,GCATGATGGAGATTCTAATCCAAGGGAAACAACAATTAGACGGAGTCACCTAGTGCAG,5340 fluorescence intensity (a.u.)
14,CTTAATTGTTCACCGATTAAGGGTCACAAATTAGATTCGGCGGAGTCACCTAGTGCAG,39600 fluorescence intensity (a.u.)
15,TAAATTTAATCTAATGGTGTAAAATAATGGGTCCACAAATCGGAGTCACCTAGTGCAG,4200 fluorescence intensity (a.u.)
16,ACATGATGATTGATGAATGATCTAATCAACCCAGTCACATCGGAGTCACCTAGTGCAG,48300 fluorescence intensity (a.u.)
17,CGGATTCCAATCAAATTTGGACCCGCCAAATGCACTCGGACGGAGTCACCTAGTGCAG,17900 fluorescence intensity (a.u.)
18,CTTTGTTCTGATTAATTACAAGTTACTAGTATATCCTAGGCGGAGTCACCTAGTGCAG,22200 fluorescence intensity (a.u.)
19,CCAACGAATCAACCCAGAAGTTGGTGGTAGAATTAACTAACGGAGTCACCTAGTGCAG,6720 fluorescence intensity (a.u.)
20,AACTTAATTTGATAAGAAAATTTAGTGGAGTCACCACAAGCGGAGTCACCTAGTGCAG,44100 fluorescence intensity (a.u.)
21,CAGACCAGGAATGATTATCACATTGCAGTGAGTTCTCATTCGGAGTCACCTAGTGCAG,3670 fluorescence intensity (a.u.)
22,CAGCATGACAGATTGCCAGTTAGCCGGCTGATATAGTTCTCGGAGTCACCTAGTGCAG,29600 fluorescence intensity (a.u.)
23,AATAATCTAATCATCCTTATCCTCTCCTCTCCACCACTCACGGAGTCACCTAGTGCAG,5620 fluorescence intensity (a.u.)
